{"source": "patent US20100196361A1", "about": "“Method of inhibition of vascular development using an antibody” (DYAX CORP., priority 2003, published 2010)", "molecules": {"B1": {"name": "DX-2220: full length, IgG1, germlined human anti-Tie1 antibody E3b; LC SEQ ID NO:700, HC SEQ ID NO:701 (antibody)", "heavy": "EVQLLESGGGLVQPGGSLRLSCAASGFTFSMYGMVWVRQAPGKGLEWVSVISPSGGNTGYADSVKGRFTISRDNSKNTLYLQMNSLRAEDTAVYYCARAPRGYSYGYYYWGQGTLVTVSS[left out - human IgG1 constant region]", "light": "DIQMTQSPSSLSASVGDRVTITCRASQGIGHYLAWYQQKPGKVPKLLIYTASTLQSGVPSRFSGSGSGTDFTLTISSLQPEDVATYYCQQFNSYPHTFGQGTRLEIKRTVAAPSVFIFPPSDEQLKSGTASVVCLLNNFYPREAKVQWKVDNALQSGNSQESVTEQDSKDSTYSLSSTLTLSKADYEKHKVYACEVTHQGLSSPVTKSFNRGEC", "modifications": "Antibody"}}, "key": {"[1]": {"system": "LLC (mouse lung carcinoma)", "test": "LLC tumor model in mice", "type": "in vivo", "settings": "day 14 after start of treatment", "experimental": "In addition to the in vivo studies presented above, four additional mouse xenografts studies were performed. These studies were conducted either according to the protocols used in the SW-480 or LNM35 study.\nThe anti-Tie1 antibody was also evaluated for its effect on implanted tumors. Tumor cells were injected subcutaneously into the abdominal region of mice (Balb/C nu/nu female mice, 5-6 weeks old). The following tumor cells were tested: a lung carcinoma (mouse syngeneic Lewis lung carcinoma (LLC)); human lung carcinoma LNM35; an aggressive human colon carcinoma clone (SW480R). Treatments with anti-Tie1 antibody were initiated 4-6 days post-implantation. The anti-Tie1 antibodies or a control antibody (the A2 anti-streptavidin antibody) were administered intraperitoneally at 20 mg/kg every second day. Tumor volume was measured every second day and calculated as 0.5×height×width×depth."}, "[2]": {"target": "T1, Tie1 (Homo sapiens, UniProt P35590)", "T1 sequence (P35590 22-1138)": "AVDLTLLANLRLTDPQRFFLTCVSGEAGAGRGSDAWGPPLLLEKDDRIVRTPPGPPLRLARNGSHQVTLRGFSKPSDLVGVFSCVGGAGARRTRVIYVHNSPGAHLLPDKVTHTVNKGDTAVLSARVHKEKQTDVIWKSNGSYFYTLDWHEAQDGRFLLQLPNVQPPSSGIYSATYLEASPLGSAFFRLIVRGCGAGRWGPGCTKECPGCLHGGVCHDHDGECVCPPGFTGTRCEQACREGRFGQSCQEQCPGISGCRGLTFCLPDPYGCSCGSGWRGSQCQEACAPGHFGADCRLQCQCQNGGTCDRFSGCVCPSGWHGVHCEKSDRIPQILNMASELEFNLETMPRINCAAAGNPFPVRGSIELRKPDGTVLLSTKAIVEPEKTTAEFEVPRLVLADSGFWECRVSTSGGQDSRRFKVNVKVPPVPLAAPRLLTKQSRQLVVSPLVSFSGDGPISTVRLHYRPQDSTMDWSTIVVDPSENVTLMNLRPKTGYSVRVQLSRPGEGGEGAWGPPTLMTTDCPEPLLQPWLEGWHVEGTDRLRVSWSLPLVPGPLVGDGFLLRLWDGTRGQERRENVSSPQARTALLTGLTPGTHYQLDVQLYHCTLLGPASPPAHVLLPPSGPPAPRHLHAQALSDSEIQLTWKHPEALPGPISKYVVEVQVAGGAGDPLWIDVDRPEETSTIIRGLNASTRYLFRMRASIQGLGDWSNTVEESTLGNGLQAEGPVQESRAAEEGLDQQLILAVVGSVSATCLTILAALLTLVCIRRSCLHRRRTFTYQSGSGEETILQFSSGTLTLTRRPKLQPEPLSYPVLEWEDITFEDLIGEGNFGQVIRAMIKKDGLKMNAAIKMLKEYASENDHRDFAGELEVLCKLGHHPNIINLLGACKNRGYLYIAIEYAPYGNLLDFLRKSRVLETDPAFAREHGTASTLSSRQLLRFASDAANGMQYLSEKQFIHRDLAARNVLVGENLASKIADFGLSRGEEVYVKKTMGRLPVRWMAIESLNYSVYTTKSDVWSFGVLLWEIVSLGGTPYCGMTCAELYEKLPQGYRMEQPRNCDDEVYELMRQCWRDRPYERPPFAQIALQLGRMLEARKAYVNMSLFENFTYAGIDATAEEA", "test": "Immunohistochemical analysis of normal human tissues", "type": "binding", "set-up": "an expression vector containing a V5-tagged full length Tie1 cDNA; expressed in transfected cells; host or cells: COS1", "settings": "biotinylated antibody 20 μg/ml", "experimental": "A series of immunohistochemical analyses on a series of non-malignant normal human tissues to assess potential areas of immunoreactivity of the E3 anti-Tie1 antibody was performed. Antibody titration experiments were conducted on both cryostat and paraformaldehyde fixed sections of select normal human tissues with biotinylated DX-2220 and an IgG isotype control antibody to determine the preferred tissue preservation conditions as well as optimal concentration of the antibody that would result in minimal background and maximal detection of signal. A concentration of 20 μg/ml for the primary antibody was selected for the study with biotinylated DX-2220 and the biotinylated IgG isotype control antibody used as the primary antibodies, and the principal detection system consisting of Streptavidin HRP with DAB as the chromagen. Tissues also were stained with the positive control antibodies (anti-CD31 and anti-vimentin) to ensure that the tissue antigens were preserved and accessible for immunohistochemical analysis. Only tissues that were positive for CD31 and vimentin staining were selected for the remainder of the study. The negative control consisted of performing the entire immunohistochemical procedure on adjacent sections in the absence of primary antibody. Slides were imaged with a DVC 1310C digital camera coupled to a Nikon microscope."}}}
{"molecule": "B1", "values": [{"measurement": "inhibition of tumor progression", "setting": "[1]", "value": 20, "unit": "% inhibition @ day 14"}, {"measurement": "staining of HMEC positive control cell line", "setting": "[2]", "value": "moderate membrane staining within the HMEC cell line"}, {"measurement": "staining of colon cancer positive control samples", "setting": "[2]", "value": "staining of macrophages, some carcinoma cells, and endothelial cells"}, {"measurement": "staining of normal tissues after subtraction of IgG isotype control background", "setting": "[2]", "value": "the majority of tissues were negative"}, {"measurement": "staining within normal tissues", "setting": "[2]", "value": "faint to moderate staining of macrophages, microglia in the brain, squamous epithelium of the cervix, faint staining of skeletal muscle, islets of Langerhans, and placental endothelium"}]}
